Test results published in the supplement of paper PMC10600219.
Structures can show the parent of a compound that is named as a salt. Over roughly 2,800 compounds, “cell viability relative to vehicle” has its median near 1.1; the lowest 2% begin near 0.19. The list shows a part of the results.

tested on: NCI-H2228 parental; assay: cell viability relative to vehicle (fraction of vehicle); NCI-H2228 is an ALK-positive lung cancer line and DTP means drug-tolerant persister; higher = less growth inhibition; settings: 100 nM; treatment time 6 days
Method in brief: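 Parental NCI-H2228 cells and drug-tolerant persister cells (made with 1000 nM of a targeted drug for 13 days) were seeded in 384-well plates. The next day, the 3114-agent TargetMol anti-cancer compound library was added at 100 nM, with DMSO as vehicle. After 6 days, ATP was read with the CellTiter-Glo 3D Cell Viability Assay. Each value is cell viability relative to vehicle-treated cells.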

Compound	cell viability
OC[C@H]1O[C@@H](Oc2cc(O)cc(/C=C/c3ccc(O)cc3)c2)[C@H](O)[C@@H](O)[C@@H]1O [Polydatin]	1.14
COc1ccc(C2CNC(=O)C2)cc1OC1CCCC1 (stereo not given) [Rolipram]	1.12
O=C1OCCN1/N=C/c1ccc([N+](=O)[O-])o1 [Furazolidone]	1.11
CCOC(=O)[C@H](CCc1ccccc1)N[C@H]1CS[C@H](c2cccs2)CN(CC(=O)O)C1=O [Temocapril HCl]	1.03
Cc1ccc(C(C)C)cc1O [Carvacrol]	0.966
O=S(=O)(O)c1cc(O)ccc1O [Ethamsylate]	1.17
COC(=O)C1=CO[C@@H](O[C@@H]2O[C@H](CO)[C@@H](O)[C@H](O)[C@H]2O)[C@H]2[C@@H]1[C@H](O)C[C@]2(C)O [Shanzhiside methyl ester]	1.17
c1ccc([C@H]2CN3CCSC3=N2)cc1 [Levamisole hydrochloride]	1.21
O=C1C[C@@H](c2ccc(O)cc2)Oc2cc(O)cc(O)c21 [Naringenin]	1.01
COc1cc2c(Oc3ccc4[nH]c(C)cc4c3F)ncnc2cc1OCCCN1CCCC1 [Cediranib]	0.882
O=C(O)c1cc(-c2ccccc2)nc2ccccc12 [Cinchophen]	0.995
CC(=O)O[C@]1(C(C)=O)CC[C@H]2[C@@H]3C[C@H](C)C4=CC(=O)CC[C@]4(C)[C@H]3CC[C@@]21C [Medroxyprogesterone Acetate]	1.24
CC(C)(C)c1nc2c3cc[nH]c(=O)c3c3cc(F)ccc3c2[nH]1 [Pyridone 6]	0.98
COc1c2c(cc3oc(CO[C@@H]4O[C@H](CO)[C@@H](O)[C@H](O)[C@H]4O)cc(=O)c13)O[C@H](C(C)(C)O)C2 [Cimifugin beta-D-glucopyranoside]	1.09
CN(C)c1nc(N(C)C)nc(N(C)C)n1 [Altretamine]	1.01
COc1cc2c(cc1-c1c(C)noc1C)ncc1[nH]c(=O)n([C@H](C)c3ccccn3)c12	0.882
COc1nccc(-c2c(-c3ccc(F)cc3)ncn2C2CCNCC2)n1	1.06
CCn1c(=O)c(-c2cc[nH]n2)cc2c(C)nc(N)nc21 [Voxtalisib]	0.965
CCCNCC(O)COc1ccccc1C(=O)CCc1ccccc1 (stereo not given) [Propafenone]	1.2
NC(=O)C(c1ccccc1)(c1ccccc1)[C@@H]1CCN(CCc2ccc3c(c2)CCO3)C1 [Darifenacin HBr]	1.3
O=C1c2ccc(Nc3ccc(F)cc3F)cc2CCc2ccc(OC[C@H](O)CO)cc21 [Skepinone-L]	1.07
COc1ccccc1OCC(O)CN1CCN(CC(=O)Nc2c(C)cccc2C)CC1 (stereo not given) [Ranolazine]	0.982
CN(C)C(=S)NN=C(c1ccccn1)c1ccccn1	0.212
CNS(=O)(=O)C[C@H]1CC[C@H](N(C)c2[nH]cnc3nccc2-3)CC1 [Oclacitinib]	0.987

Compound	cell viability
COc1cc(/C=C(\C#N)C(=O)Nc2nnc(C(F)(F)F)s2)ccc1OCc1ccc(C(F)(F)F)cc1C(F)(F)F	0.992
C[C@@]12C[C@H](c3ccoc3)O[C@@]13C[C@H](OC3=O)[C@H]1[C@H]2C[C@@H]2C[C@H]1C(=O)O2 [Diosbulbin B]	1.03
COc1cc([C@@H]2c3cc4c(cc3[C@@H](O[C@@H]3O[C@@H]5CO[C@@H](C)O[C@H]5[C@H](O)[C@H]3O)[C@H]3COC(=O)[C@H]23)OCO4)cc(OC)c1O [Etoposide]	1.07
C[C@H]1C[C@@H]2[C@H]([C@@H](O)C[C@@]3(C)[C@H]2CC[C@]3(O)C(=O)CO)[C@@]2(C)C=CC(=O)C=C12 [Methylprednisolone]	0.867
COc1ccc2[nH]c(-c3cccc(F)c3)cc(=O)c2c1OP(=O)(O)O	0.213
CCn1cc(-c2cccc(C(F)(F)F)c2)c2sc(C(=N)NC3CCS(=O)(=O)CC3)cc2c1=O	1.1
CNCC(O)c1ccc(OC(=O)C(C)(C)C)c(OC(=O)C(C)(C)C)c1 (stereo not given) [Dipivefrin hydrochloride]	1.05
O=C(NCCO)c1cccc(-c2cc(Nc3ccc(OC(F)(F)F)cc3)ncn2)c1	1.02
COCC[n+]1c2c(n(Cc3cnccn3)c1C)C(=O)c1ccccc1C2=O	0.0796
CO[C@]1(CC[C@@H](C)CO[C@@H]2O[C@H](CO)[C@@H](O)[C@H](O)[C@H]2O)O[C@H]2C[C@H]3[C@@H]4CC=C5C[C@@H](O[C@@H]6O[C@H](CO)[C@@H](O[C@@H]7O[C@@H](C)[C@H](O)[C@@H](O)[C@H]7O)[C@H](O)[C@H]6O[C@@H]6O[C@@H](C)[C@H](O)[C@@H](O)[C@H]6O)CC[C@]5(C)[C@H]4CC[C@]3(C)[C@H]2[C@@H]1C [Methyl protodioscin]	1.14
CCc1cn([C@H]2C[C@H](O)[C@@H](CO)O2)c(=O)[nH]c1=O [Edoxudine]	1.04
CN1C(=O)C(C)(C)Oc2c(-c3cn(C)c(=O)c4[nH]ccc34)cc(S(C)(=O)=O)cc21	0.935
COC(=O)C1=CC[C@@]23CC[C@@H]([C@@](C)(/C=C/C=C(\C)C(=O)O)OC2=O)[C@@]3(OC(C)=O)CC1 [Pseudolaric Acid B]	1.03
CCCCNNC(=O)c1ccc(-c2cccc(F)c2F)cc1	1.03
Cc1c(N(C)CS(=O)(=O)O)c(=O)n(-c2ccccc2)n1C [Analgin]	0.98
C[C@@H]1CCN(C(=O)CC#N)C[C@@H]1N(C)c1ncnc2[nH]ccc12 [Tofacitinib]	1
O=c1[nH]c(=O)n(C2CCCO2)cc1F (stereo not given) [Tegafur]	0.988
Cc1cc2c(F)c(Oc3ncnn4cc(OC[C@@H](C)OC(=O)[C@H](C)N)c(C)c34)ccc2[nH]1 [Brivanib Alaninate]	0.914
CCOC(=O)Nc1cc(-c2ccc(C)c(NS(C)(=O)=O)c2)nn2c(C)nnc12 [Bromosporine]	1
COc1cc2c3cc1Oc1c(OC)c(OC)cc4c1[C@@H](Cc1ccc(O)c(c1)Oc1ccc(cc1)C[C@@H]3N(C)CC2)N(C)CC4 [Berbamine]	1.03
CN1CCN(c2c(F)cc3c(=O)c(C(=O)O)cn(CCF)c3c2F)CC1 [Fleroxacin]	1.15
C[C@H](CCC(=O)O)[C@H]1CC[C@H]2[C@@H]3[C@H](O)C[C@@H]4C[C@H](O)CC[C@]4(C)[C@H]3CC[C@]12C [Chenodeoxycholic acid]	1.26
NC(=O)c1ccccc1Nc1ccnc(Nc2cccc(O)c2)n1	1.01
NNc1nncc2ccccc12 [Hydralazine hydrochloride]	1

Compound	cell viability
CC(=O)OCC(CCn1cnc2cnc(N)nc21)COC(C)=O [Famciclovir]	1.07
NCC(O)CC(=O)O (stereo not given) [4-Amino-3-hydroxybutyric Acid]	1.17
O=c1cc(-c2ccc(O[C@@H]3O[C@H](CO)[C@@H](O)[C@H](O)[C@H]3O)cc2)oc2cc(O)c([C@@H]3O[C@H](CO)[C@@H](O)[C@H](O)[C@H]3O[C@@H]3OC[C@H](O)[C@H](O)[C@H]3O)c(O)c12 [Vaccarin]	1.09
C=CC(=O)Nc1cccc(Oc2nc(Nc3ccc(N4CCN(C)CC4)cc3OC)ncc2Cl)c1	1.19
O=C(/C=C/c1ccc(O)c(O)c1)OCCc1ccccc1 [Caffeic Acid Phenethyl Ester]	1.03
CC[C@H](C)C(=O)O[C@H]1CCC=C2C=C[C@H](C)[C@H](CC[C@@H]3C[C@@H](O)CC(=O)O3)[C@H]21 [Mevastatin]	1.19
C=C1C[C@@]23CC[C@H]4[C@@](C)(CCC[C@@]4(C)C(=O)O)[C@@H]2CC[C@]1(O[C@@H]1O[C@@H](CO)[C@@H](O)[C@H](O)[C@@H]1O[C@@H]1O[C@@H](CO)[C@@H](O)[C@H](O)[C@@H]1O)C3 [steviolbioside]	0.981
O=c1oc2ccccc2c(O)c1Cc1c(O)c2ccccc2oc1=O [Dicumarol]	1.05
CS(=O)(=O)N1CCc2c(-c3cnc(N)nc3)nc(N3CCOCC3)nc21	0.926
CN(C)C[C@@H]1CCn2cc(c3ccccc32)C2=C(C(=O)NC2=O)c2cn(c3ccccc23)CCO1 [Ruboxistaurin hydrochloride]	1
Cc1nc(=O)c2cc(CN(C)c3ccc(C(=O)N[C@@H](CCC(=O)O)C(=O)O)s3)ccc2[nH]1 [Raltitrexed]	0.151
O=C1c2ccccc2C(=O)c2c1ccc(O)c2O [Alizarin]	1.22
CCCOc1ccn2c(C(C)=O)cc(-c3ccccc3S(C)(=O)=O)c2c1	0.991
Cc1cnc(NC(=O)C2=C(O)c3ccccc3S(=O)(=O)N2C)s1 [Meloxicam]	1.06
O=C(O)CCCc1ccccc1 [Sodium Phenylbutyrate]	1.36
CC1(C)O[C@@H]2C[C@H]3[C@@H]4CCC5=CC(=O)C=C[C@]5(C)[C@@]4(F)[C@@H](O)C[C@]3(C)[C@]2(C(=O)CO)O1 [Triamcinolone acetonide]	1.02
COc1cc(O)cc(O)c1C(=O)/C=C/c1ccccc1 [Cardamonin]	1.06
C[C@@H]1C[C@H]2[C@@H]3CCC4=CC(=O)C=C[C@]4(C)[C@@]3(F)[C@@H](O)C[C@]2(C)[C@@]1(O)C(=O)CO [Dexamethasone]	0.864
CC1(C)OCCn2c1nc1c(N3CCOCC3)nc(-c3cnc(N)nc3)nc12	0.739
CC(C)Oc1ccc(C(=O)N[C@H](CNC(=O)CN(C)C)Cc2ccc(-c3cn4cccc([C@H](C)O)c4n3)cc2)cc1Cl	0.15
O=C(O)COC(=O)Cc1ccccc1Nc1c(Cl)cccc1Cl [Aceclofenac]	1.28
Cc1nnc(NS(=O)(=O)c2ccc(N)cc2)s1 [Sulfamethizole]	1.14
